The record followed here is ChEMBL document CHEMBL5606460, “ASAP - DENV-2 NS2B-NS3 protease fluorescence single point” (2024).

Screen size: about 2,000 compounds; about 110 (5.5%) showed an effect of 50% or more. The list shows a part of the results.

The target in the assay is Genome polyprotein (dengue virus type 2) (UniProt P29990).
The mark [1] stands for this setting: Thailand/16681/1984, Concentration 25.0 uM, Number of replicates 1.0.

As usually defined, the inhibition is the drop in the measured response relative to a control, in per cent. As for `CCn1ncc(-c2nn(C)cc2NC(=O)c2ccccc2C(F)(F)F)c1F`, the inhibition came out at 5.06% (Thailand/16681/1984, Concentration 49.5 uM, Number of replicates 2.0, Standard deviation 3.2320563661670154 %); 2.66% (Thailand/16681/1984, Concentration 99.01 uM, Number of replicates 2.0, Standard deviation 0.128068931171749 %); 1.53% (Thailand/16681/1984, Concentration 198.0 uM, Number of replicates 2.0, Standard deviation 1.8993686119068767 %).

In the case of `CCn1ccnc(N2CC[C@@H](Cc3ccncc3)C2)c1=O`, the inhibition reads like this: (Thailand/16681/1984, Concentration 50.0 uM, Number of replicates 2.0, Standard deviation 1.0302824092471092 %) 6.85%; (Thailand/16681/1984, Concentration 100.0 uM, Number of replicates 2.0, Standard deviation 1.35955887792332 %) 14.8%; (Thailand/16681/1984, Concentration 200.0 uM, Number of replicates 2.0, Standard deviation 1.3214608242677766 %) 28.2%.

Consider `COc1cccc(CNC(=O)C2CCN(c3ccc(C=O)cc3)CC2)c1OC`, for which, under setting [1], the inhibition worked out at 11%.

For `Cc1cc(CO)c2cccc(Cc3ccccc3C(=O)NCC(N)=O)c2n1`, the inhibition reads like this: (Thailand/16681/1984, Concentration 49.95 uM, Number of replicates 2.0, Standard deviation 0.5253345885233084 %) 1.79%; (Thailand/16681/1984, Concentration 99.9 uM, Number of replicates 2.0, Standard deviation 0.6122918820772879 %) 9.88%.

For `O=Cc1ccc(N2CCC(C(=O)Nc3ccc(Br)c([N+](=O)[O-])c3)CC2)cc1`, the inhibition under setting [1] worked out at 17.8%.

On to `O=Cc1ccc(N2CCC(C(=O)NCCc3ccccc3[N+](=O)[O-])CC2)cc1`, for which the inhibition under setting [1] stood at 15.7%.

`O=Cc1ccc(N2CCC(C(=O)Nc3cc(Cl)c(Br)cn3)CC2)cc1`: under setting [1], the inhibition stood at 11.8%.

With `Cc1nc([C@H]2CCCNC2)[nH]c1C(=O)Nc1ccccn1`, the inhibition reads like this: (Thailand/16681/1984, Concentration 49.5 uM, Number of replicates 2.0, Standard deviation 0.26437200784337433 %) -5.23%; (Thailand/16681/1984, Concentration 99.01 uM, Number of replicates 2.0, Standard deviation 0.1513742839369389 %) -5.21%; (Thailand/16681/1984, Concentration 198.0 uM, Number of replicates 2.0, Standard deviation 0.5479319585272123 %) -5.55%.

Turning to `C[C@@H](CC(C)(C)c1ccccc1)NC(=O)C1CCN(c2ccc(C=O)cc2)CC1`, the inhibition under setting [1] is 14.6%.

Take `O=Cc1ccc(N2CCC(C(=O)N(Cc3ccccc3)[C@H]3CCS(=O)(=O)C3)CC2)cc1`: the inhibition under setting [1] was 14%.

`CSCC[C@H](NC(=O)OC(C)(C)C)C(=O)N1CCC[C@H]1C(=O)Nc1ccc2c(c1)B(O)OC2`: the inhibition is -1.99% (Thailand/16681/1984, Concentration 49.5 uM, Number of replicates 2.0, Standard deviation 4.107399373855346 %); -1.45% (Thailand/16681/1984, Concentration 99.01 uM, Number of replicates 2.0, Standard deviation 4.409196434477242 %); -1.2% (Thailand/16681/1984, Concentration 198.0 uM, Number of replicates 2.0, Standard deviation 4.1412500367053555 %).

In the case of `Cc1cc(Br)c(Cl)cc1NC(=O)C1CCN(c2ccc(C=O)cc2)CC1`, the inhibition under setting [1] was 12.9%.

With `O=Cc1ccc(N2CCC(C(=O)N3CCN(C(=O)N4CCCCC4)CC3)CC2)cc1`, the inhibition under setting [1] worked out at 11.6%.

In the case of `Cc1ccc(C(=O)N2CCC(NC(=O)C3CCN(c4ccc(C=O)cc4)CC3)CC2)cc1`, the inhibition under setting [1] stood at 13.9%.

Consider `COC(=O)c1csc2cc(C(=O)N3CCCc4cc(CCN)ccc43)[nH]c12`, for which the inhibition reads like this: (Thailand/16681/1984, Concentration 49.5 uM, Number of replicates 2.0, Standard deviation 1.4939134214945897 %) 2.21%; (Thailand/16681/1984, Concentration 99.01 uM, Number of replicates 2.0, Standard deviation 1.4587685132205075 %) 6.61%; (Thailand/16681/1984, Concentration 198.0 uM, Number of replicates 2.0, Standard deviation 1.4676854376662603 %) 16.2%.

In the case of `CCCCCC(=O)N[C@H](C(=O)N1CCC(N)CC1)c1ccc(OCc2ccccc2)cc1`, the inhibition is, setting by setting: (Thailand/16681/1984, Concentration 49.5 uM, Number of replicates 2.0, Standard deviation 1.3500397593060436 %) -7.81%; (Thailand/16681/1984, Concentration 99.01 uM, Number of replicates 2.0, Standard deviation 1.8738933918663763 %) -4.12%; (Thailand/16681/1984, Concentration 198.0 uM, Number of replicates 2.0, Standard deviation 0.2605091648836539 %) -3.96%.

Take `O=Cc1ccc(N2CCC(C(=O)NCc3ccc(F)c(Br)c3)CC2)cc1`: the inhibition under setting [1] amounted to 2.23%.

Turning to `Cc1cc(CO)c2cccc(Cc3cccc(NC(=O)c4nc(N)n[nH]4)c3)c2n1`, the inhibition amounted to 1.75% (Thailand/16681/1984, Concentration 49.95 uM, Number of replicates 2.0, Standard deviation 2.1470069511188496 %) and 8.09% (Thailand/16681/1984, Concentration 99.9 uM, Number of replicates 2.0, Standard deviation 2.660737289988502 %).

On to `CNC(=O)c1cc2cc(Cl)ccc2n1S(=O)(=O)c1ccc(Oc2ccccc2Cl)cc1`, for which the inhibition runs as follows: (Thailand/16681/1984, Concentration 49.5 uM, Number of replicates 2.0, Standard deviation 0.49657821525281054 %) 6.8%; (Thailand/16681/1984, Concentration 99.01 uM, Number of replicates 2.0, Standard deviation 0.6960919552093164 %) 10.4%; (Thailand/16681/1984, Concentration 198.0 uM, Number of replicates 2.0, Standard deviation 1.1059036335445078 %) 15.1%.

On to `Cc1cc(CO)c2cccc(C[C@H](NC(=O)[C@H](N)CCO)C(=O)O)c2n1`, for which the inhibition is -0.419% (Thailand/16681/1984, Concentration 49.95 uM, Number of replicates 2.0, Standard deviation 1.0633997801533022 %) and 2.93% (Thailand/16681/1984, Concentration 99.9 uM, Number of replicates 2.0, Standard deviation 0.6573622045882916 %).

On to `O=Cc1ccc(N2CCC(C(=O)N3CCCC[C@H]3C(=O)N3CCCC3)CC2)cc1`, for which the inhibition under setting [1] came out at 12.3%.

As to `Cc1cc(N)c2c(Cl)ccc(Cl)c2n1`, the inhibition runs as follows: (Thailand/16681/1984, Concentration 49.95 uM, Number of replicates 2.0, Standard deviation 8.427681720895945 %) -5.26%; (Thailand/16681/1984, Concentration 99.9 uM, Number of replicates 2.0, Standard deviation 7.565581927359314 %) -3.92%.

In the case of `CC(C)(CC(=O)N1CCCC1)NC(=O)C1CCN(c2ccc(C=O)cc2)CC1`, the inhibition under setting [1] amounted to 15.4%.

On to `NCc1ccc(C[C@H](NC(=O)c2ccccc2)C(=O)Nc2cccc(CN)c2)cc1`, for which the inhibition was -5.92% (Thailand/16681/1984, Concentration 49.5 uM, Number of replicates 2.0, Standard deviation 0.5389148931693977 %); -2.14% (Thailand/16681/1984, Concentration 99.01 uM, Number of replicates 2.0, Standard deviation 0.9397447409121293 %); 3.08% (Thailand/16681/1984, Concentration 198.0 uM, Number of replicates 2.0, Standard deviation 0.2486807361427685 %).

As to `O=Cc1ccc(N2CCC(C(=O)Nc3cc(Cl)ccc3OC(F)(F)F)CC2)cc1`, under setting [1], the inhibition amounted to 14.4%.

Regarding `CCCc1nn(C)c(C(N)=O)c1NC(=O)C1CCN(c2ccc(C=O)cc2)CC1`, under setting [1], the inhibition is 8.14%.
